# Assay results from the supplement of paper PMC8728848.
# Some of the results follow.
# How the values were obtained:
# Assay in all cases: glycan array binding signal (z-score within array); higher = stronger binding
# Conditions in all cases: glycan notation: IUPAC condensed, linker removed
# Neu5Ac(a2-3)GalNAc = molecular target: Neu5Ac(a2-3)GalNAc
# Outline: (§1)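 Columns mapping to the same glycan were averaged after glycan names were converted to IUPAC-condensed notation. The data come from 3228 arrays in the Consortium for Functional Glycomics database, limited to those with an available protein sequence. Binding is reported as a within-array Z-score averaged across arrays of one protein sequence and across linkers.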
# [1] = molecular target: Neu5Ac(a2-3)GalNAc(b1-4)GlcNAc
# Outline: as §1
# [2] = molecular target: Neu5Ac(a2-3)[GalNAc(b1-4)]Gal(b1-4)Glc
# Outline: as §1
# [3] = molecular target: Neu5Ac(a2-3)[GalNAc(b1-4)]Gal(b1-4)GlcNAc
# Outline: as §1
# [4] = molecular target: Neu5Ac(a2-3)[GalNAc(b1-4)]Gal(b1-4)GlcNAc(b1-3)GalNAc
# Outline: as §1
# [5] = molecular target: Neu5Ac(a2-3)[Neu5Ac(a2-6)]GalNAc
# Outline: as §1
# Neu5Ac(a2-6)Gal = molecular target: Neu5Ac(a2-6)Gal
# Outline: as §1
# [6] = molecular target: Neu5Ac(a2-6)Gal(b1-3)GlcNAc(b1-3)[Gal(b1-4)GlcNAc(b1-6)]Gal(b1-4)Glc
# Outline: as §1
# Neu5Ac(a2-6)Gal(b1-4)Glc = molecular target: Neu5Ac(a2-6)Gal(b1-4)Glc
# Outline: as §1
# [7] = molecular target: Neu5Ac(a2-6)Gal(b1-4)GlcNAc
# Outline: as §1
# [8] = molecular target: Neu5Ac(a2-6)Gal(b1-4)GlcNAc(b1-2)Man
# Outline: as §1
# [9] = molecular target: Neu5Ac(a2-6)Gal(b1-4)GlcNAc(b1-2)Man(a1-3)Man(b1-4)GlcNAc(b1-4)GlcNAc
# Outline: as §1
# [10] = molecular target: Neu5Ac(a2-6)Gal(b1-4)GlcNAc(b1-2)Man(a1-3)[Gal(b1-4)GlcNAc(b1-2)Man(a1-6)]Man(b1-4)GlcNAc(b1-4)GlcNAc
# Outline: as §1
# [11] = molecular target: Neu5Ac(a2-6)Gal(b1-4)GlcNAc(b1-2)Man(a1-3)[GlcNAc(b1-2)Man(a1-6)]Man(b1-4)GlcNAc(b1-4)GlcNAc
# Outline: as §1
# [12] = molecular target: Neu5Ac(a2-6)Gal(b1-4)GlcNAc(b1-2)Man(a1-3)[GlcNAc(b1-4)][Neu5Ac(a2-6)Gal(b1-4)GlcNAc(b1-2)Man(a1-6)]Man(b1-4)GlcNAc(b1-4)GlcNAc
# Outline: as §1
# [13] = molecular target: Neu5Ac(a2-6)Gal(b1-4)GlcNAc(b1-2)Man(a1-3)[Man(a1-6)]Man(b1-4)GlcNAc(b1-4)GlcNAc
# Outline: as §1
# [14] = molecular target: Neu5Ac(a2-6)Gal(b1-4)GlcNAc(b1-2)Man(a1-3)[Neu5Ac(a2-3)Gal(b1-4)GlcNAc(b1-2)Man(a1-6)]Man(b1-4)GlcNAc(b1-4)GlcNAc
# Outline: as §1
# [15] = molecular target: Neu5Ac(a2-6)Gal(b1-4)GlcNAc(b1-2)Man(a1-3)[Neu5Ac(a2-6)Gal(b1-4)GlcNAc(b1-2)Man(a1-6)]Man(b1-4)GlcNAc(b1-4)GlcNAc
# Outline: as §1
# [16] = molecular target: Neu5Ac(a2-6)Gal(b1-4)GlcNAc(b1-2)Man(a1-3)[Neu5Ac(a2-6)Gal(b1-4)GlcNAc(b1-2)Man(a1-6)]Man(b1-4)GlcNAc(b1-4)[Fuc(a1-6)]GlcNAc
# Outline: as §1
# [17] = molecular target: Neu5Ac(a2-6)Gal(b1-4)GlcNAc(b1-2)Man(a1-6)Man(b1-4)GlcNAc(b1-4)GlcNAc
# Outline: as §1
# [18] = molecular target: Neu5Ac(a2-6)Gal(b1-4)GlcNAc(b1-2)Man(a1-6)[Gal(b1-4)GlcNAc(b1-2)Man(a1-3)]Man(b1-4)GlcNAc(b1-4)GlcNAc
# Outline: as §1
# [19] = molecular target: Neu5Ac(a2-6)Gal(b1-4)GlcNAc(b1-2)Man(a1-6)[GlcNAc(b1-2)Man(a1-3)]Man(b1-4)GlcNAc(b1-4)GlcNAc
# Outline: as §1
# [20] = molecular target: Neu5Ac(a2-6)Gal(b1-4)GlcNAc(b1-2)Man(a1-6)[Man(a1-3)]Man(b1-4)GlcNAc(b1-4)GlcNAc
# Outline: as §1
# [21] = molecular target: Neu5Ac(a2-6)Gal(b1-4)GlcNAc(b1-2)[Neu5Ac(a2-6)Gal(b1-4)GlcNAc(b1-4)]Man(a1-3)[GlcNAc(b1-4)][Neu5Ac(a2-6)Gal(b1-4)GlcNAc(b1-2)[Neu5Ac(a2-6)Gal(b1-4)GlcNAc(b1-6)]Man(a1-6)]Man(b1-4)GlcNAc(b1-4)GlcNAc
# Outline: as §1
# [22] = molecular target: Neu5Ac(a2-6)Gal(b1-4)GlcNAc(b1-2)[Neu5Ac(a2-6)Gal(b1-4)GlcNAc(b1-4)]Man(a1-3)[GlcNAc(b1-4)][Neu5Ac(a2-6)Gal(b1-4)GlcNAc(b1-4)Man(a1-6)]Man(b1-4)GlcNAc(b1-4)GlcNAc
# Outline: as §1
# [23] = molecular target: Neu5Ac(a2-6)Gal(b1-4)GlcNAc(b1-2)[Neu5Ac(a2-6)Gal(b1-4)GlcNAc(b1-6)]Man(a1-6)[Neu5Ac(a2-6)Gal(b1-4)GlcNAc(b1-2)Man(a1-3)][GlcNAc(b1-4)]Man(b1-4)GlcNAc(b1-4)GlcNAc
# Outline: as §1
# [24] = molecular target: Neu5Ac(a2-6)Gal(b1-4)GlcNAc(b1-3)Gal(b1-3)GlcNAc
# Outline: as §1
# [25] = molecular target: Neu5Ac(a2-6)Gal(b1-4)GlcNAc(b1-3)Gal(b1-4)GlcNAc
# Outline: as §1
# [26] = molecular target: Neu5Ac(a2-6)Gal(b1-4)GlcNAc(b1-3)Gal(b1-4)GlcNAc(b1-2)Man(a1-3)[Neu5Ac(a2-6)Gal(b1-4)GlcNAc(b1-3)Gal(b1-4)GlcNAc(b1-2)Man(a1-6)]GalNAc
# Outline: as §1
# [27] = molecular target: Neu5Ac(a2-6)Gal(b1-4)GlcNAc(b1-3)Gal(b1-4)GlcNAc(b1-3)Gal(b1-4)GlcNAc
# Outline: as §1
# [28] = molecular target: Neu5Ac(a2-6)Gal(b1-4)GlcNAc(b1-3)Gal(b1-4)GlcNAc(b1-3)Gal(b1-4)GlcNAc(b1-2)Man(a1-3)[Neu5Ac(a2-6)Gal(b1-4)GlcNAc(b1-3)Gal(b1-4)GlcNAc(b1-3)Gal(b1-4)GlcNAc(b1-2)Man(a1-6)]GalNAc
# Outline: as §1
# [29] = molecular target: Neu5Ac(a2-6)Gal(b1-4)GlcNAc(b1-3)Gal(b1-4)GlcNAc(b1-3)GalNAc
# Outline: as §1
# [30] = molecular target: Neu5Ac(a2-6)Gal(b1-4)GlcNAc(b1-3)Gal(b1-4)GlcNAc(b1-3)[Neu5Ac(a2-6)Gal(b1-4)GlcNAc(b1-3)Gal(b1-4)GlcNAc(b1-6)]GalNAc
# Outline: as §1
# [31] = molecular target: Neu5Ac(a2-6)Gal(b1-4)GlcNAc(b1-3)Gal(b1-4)GlcNAc(b1-6)[Gal(b1-3)]GalNAc
# Outline: as §1
# [32] = molecular target: Neu5Ac(a2-6)Gal(b1-4)GlcNAc(b1-3)Gal(b1-4)[Fuc(a1-3)]GlcNAc(b1-3)Gal(b1-4)[Fuc(a1-3)]GlcNAc
# Outline: as §1
# [33] = molecular target: Neu5Ac(a2-6)Gal(b1-4)GlcNAc(b1-3)GalNAc
# Outline: as §1
# [34] = molecular target: Neu5Ac(a2-6)Gal(b1-4)GlcNAc(b1-3)[Neu5Ac(a2-6)Gal(b1-4)GlcNAc(b1-6)]GalNAc
# Outline: as §1
binder,measurement,setting,value
PX14375F-bfa-539-21-539 (Bacteroides fragilis) (protein) EDFLQKDPPSSPSQSVFWQKKSDFESALAGTYSVMYSGVFSQIMPCLDGLTDNAIVQHSEGTYGWAKTIAQGDLTPNQGGFVTDIYGNCYKGIARVHILMEQLDQYTGSDISADEKKFMLAQCKALRGYFYSWLYQCYKEVPVVTQSLDLNTMYQPKATRAEVLNRVMTDYDEAISELPDKLYSDSQTSGRFTVSAVKALKARILLFDAYDSNGKAISSKMEEVLTLLQSIKGYSLAARVRDNFISEKQLASPEIMFSVRFLRPNLTHSMDLYYGAWAVLDPTRNMVDAFECTDGKPWGESPLTVRPDESILYGNDDALKKAERAKMFMNRDRRLYESVNHSMMANFVDDGFKDEEVQVNESNNKGPTGFSALKYVQPTDVTPGYSTVSDADIVVLRYAHVLLMIAEAENEAHGATTTALNAINEVRTRSGQPAIEAGISQDDLRERIRNEWRIETCFEGLRYFQLKRWKLMDKRVNGVEDPAYPGYIKVYKPAFEFFPIPQSEIDKAGGVLKQDPAYE,glycan array binding signal (z-score),Neu5Ac(a2-3)GalNAc,-0.323
same,glycan array binding signal (z-score),[1],-0.258
same,glycan array binding signal (z-score),[2],-0.803
same,glycan array binding signal (z-score),[3],-0.459
same,glycan array binding signal (z-score),[4],0.894
same,glycan array binding signal (z-score),[5],-0.146
same,glycan array binding signal (z-score),Neu5Ac(a2-6)Gal,0.207
same,glycan array binding signal (z-score),[6],-0.214
same,glycan array binding signal (z-score),Neu5Ac(a2-6)Gal(b1-4)Glc,-0.038
same,glycan array binding signal (z-score),[7],0.121
same,glycan array binding signal (z-score),[8],0.113
same,glycan array binding signal (z-score),[9],0.11
same,glycan array binding signal (z-score),[10],-0.808
same,glycan array binding signal (z-score),[11],0.45
same,glycan array binding signal (z-score),[12],0.614
same,glycan array binding signal (z-score),[13],-0.309
same,glycan array binding signal (z-score),[14],-0.082
same,glycan array binding signal (z-score),[15],0.007
same,glycan array binding signal (z-score),[16],0.378
same,glycan array binding signal (z-score),[17],-0.138
same,glycan array binding signal (z-score),[18],-0.223
same,glycan array binding signal (z-score),[19],0.767
same,glycan array binding signal (z-score),[20],-0.518
same,glycan array binding signal (z-score),[21],-1.01
same,glycan array binding signal (z-score),[22],-0.061
same,glycan array binding signal (z-score),[23],-0.074
same,glycan array binding signal (z-score),[24],0.055
same,glycan array binding signal (z-score),[25],0.279
same,glycan array binding signal (z-score),[26],1.22
same,glycan array binding signal (z-score),[27],-0.803
same,glycan array binding signal (z-score),[28],2.67
same,glycan array binding signal (z-score),[29],-0.898
same,glycan array binding signal (z-score),[30],-0.22
same,glycan array binding signal (z-score),[31],-0.919
same,glycan array binding signal (z-score),[32],-0.045
same,glycan array binding signal (z-score),[33],-0.096
same,glycan array binding signal (z-score),[34],-0.565
